Data reported in the BET-seq Pho4 binding data (Le et al. 2018).
The list shows a part of the results. These are noisy estimates, calculated here from bound and input reads.

These sequences were tested against T1, Pho4 (S. cerevisiae) (UniProt P07270) (assay: relative binding free energy (BET-seq); higher = weaker binding). Details: reference: library average.
T1 sequence: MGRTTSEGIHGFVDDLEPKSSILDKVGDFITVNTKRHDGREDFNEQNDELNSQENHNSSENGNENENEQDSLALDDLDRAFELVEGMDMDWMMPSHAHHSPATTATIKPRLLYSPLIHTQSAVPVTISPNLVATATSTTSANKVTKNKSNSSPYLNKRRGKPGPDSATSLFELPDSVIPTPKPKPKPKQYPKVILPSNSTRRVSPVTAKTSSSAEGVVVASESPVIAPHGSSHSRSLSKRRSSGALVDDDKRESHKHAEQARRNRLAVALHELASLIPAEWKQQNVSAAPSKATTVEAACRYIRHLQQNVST

Sequence	relative binding free energy
GAAGGCACGTGTGAAG	-0.04 kcal/mol
GGTTCCACGTGTTAGT	0.14 kcal/mol
GGGAACACGTGTAGGA	0.02 kcal/mol
TTGTGCACGTGGAAGT	0.09 kcal/mol
GGCAGCACGTGCTTGT	-0.02 kcal/mol
AGGTTCACGTGATTCG	0.33 kcal/mol
TCATACACGTGGTGTG	0.04 kcal/mol
AGGTGCACGTGCAGGG	-0.02 kcal/mol
AAGCTCACGTGTTGTG	0.1 kcal/mol
TTTCACACGTGCTGGT	0.15 kcal/mol
CGGCTCACGTGTTGTG	0.35 kcal/mol
TGATGCACGTGCGTTT	-0.14 kcal/mol
GTTGTCACGTGTGGTT	0.22 kcal/mol
ACGGGCACGTGGTGGC	-0.1 kcal/mol
GGAGTCACGTGATTCG	0.29 kcal/mol
CAGGGCACGTGATGTA	-0.05 kcal/mol
AGGTGCACGTGGTGCT	-0.08 kcal/mol
TGATTCACGTGAACGG	0.39 kcal/mol
CCTGGCACGTGTGTTG	-0.11 kcal/mol
GTAATCACGTGGGCGG	0 kcal/mol
TTTGACACGTGCGTAG	-0.13 kcal/mol
CGTGTCACGTGTGGTC	0.07 kcal/mol
AGGTCCACGTGGGGTT	-0.15 kcal/mol
GGGGACACGTGATGTG	0.25 kcal/mol
CTGGTCACGTGTGTTA	0.07 kcal/mol
CTTTTCACGTGGGAGT	0.23 kcal/mol

Sequence	relative binding free energy
CTCTGCACGTGGGTAA	-0.04 kcal/mol
GTTACCACGTGAGTGT	0.22 kcal/mol
ATAAGCACGTGAGGTA	0.07 kcal/mol
TGCGTCACGTGTCTTT	0.05 kcal/mol
GTATGCACGTGGGGAT	-0.07 kcal/mol
GTTTTCACGTGGCGGT	0.31 kcal/mol
ATGCGCACGTGCTGGG	-0.16 kcal/mol
AATTGCACGTGAGGCT	0.05 kcal/mol
GTGTGCACGTGAGATC	0.18 kcal/mol
TTCATCACGTGACGGG	0.25 kcal/mol
GAAGGCACGTGAGGCG	0.14 kcal/mol
AGTATCACGTGGATGA	0 kcal/mol
TGATCCACGTGGGAGT	-0.07 kcal/mol
CAGTGCACGTGAAAGG	0.22 kcal/mol
TTTAGCACGTGGTCAT	-0.18 kcal/mol
TAATTCACGTGGAATG	0.33 kcal/mol
TGGTCCACGTGATGGA	0.17 kcal/mol
GGGTGCACGTGAGGAC	0.17 kcal/mol
TTTGGCACGTGGCGTC	-0.38 kcal/mol
GTGGTCACGTGCGCTT	0.06 kcal/mol
GCTACCACGTGGGGGT	-0.11 kcal/mol
TCTTACACGTGAGGTG	0.31 kcal/mol
TAGGTCACGTGACCGG	0.25 kcal/mol
AGGGCCACGTGTTTTT	0.04 kcal/mol
TGGGTCACGTGGGGGA	0.01 kcal/mol
AGTGTCACGTGGGCGT	-0.11 kcal/mol

Sequence	relative binding free energy
GGATACACGTGGTGGC	0.06 kcal/mol
GATTGCACGTGAAATT	0.34 kcal/mol
TCATTCACGTGTTATT	0.23 kcal/mol
TCTAGCACGTGGGTTG	-0.15 kcal/mol
TATATCACGTGTCCGT	0.29 kcal/mol
ATGAGCACGTGTAGTG	-0.05 kcal/mol
AGATGCACGTGGGAGC	-0.05 kcal/mol
TGGAACACGTGGAGGA	0.2 kcal/mol
TTGGGCACGTGGGTGT	-0.1 kcal/mol
GGGTGCACGTGATAGC	0.23 kcal/mol
TAGTACACGTGGCATG	-0.05 kcal/mol
GTTATCACGTGTGGGG	0.23 kcal/mol
TGTCGCACGTGGGTCG	-0.18 kcal/mol
ATGGTCACGTGGTTGC	0.02 kcal/mol
GTTGGCACGTGATGAT	0.09 kcal/mol
TGGTTCACGTGCGCTG	0.25 kcal/mol
GAATTCACGTGTTTGG	0.37 kcal/mol
AGTTTCACGTGACTAT	0.31 kcal/mol
TTAGTCACGTGGAGCG	0.13 kcal/mol
TAATGCACGTGTCTTG	-0.02 kcal/mol
TCGCGCACGTGGTTTA	-0.1 kcal/mol
GGGGTCACGTGAAGTA	0.41 kcal/mol
CGATGCACGTGCGGGG	-0.24 kcal/mol
CGTTACACGTGGGTAG	-0.12 kcal/mol
CCATGCACGTGGGGTG	-0.23 kcal/mol
TCAGTCACGTGGTTGC	0.1 kcal/mol

Sequence	relative binding free energy
ATGGCCACGTGTAGTT	0 kcal/mol
AGTAACACGTGTTTAA	0.08 kcal/mol
ACAGACACGTGGGGTG	-0.09 kcal/mol
TTCAGCACGTGGAGGC	0.04 kcal/mol
GTGTACACGTGGTATT	0.08 kcal/mol
GACTTCACGTGAGGGG	0.34 kcal/mol
GTAATCACGTGTAGGT	0.21 kcal/mol
TTATACACGTGTCGGG	0.14 kcal/mol
TTTAACACGTGTGTTC	0.09 kcal/mol
TGCGGCACGTGGGATG	-0.27 kcal/mol
TTTGACACGTGGGTGA	-0.13 kcal/mol
GTTAGCACGTGCGTGT	-0.09 kcal/mol
GGTGCCACGTGAATAG	0.2 kcal/mol
CCGTGCACGTGGCGGG	-0.19 kcal/mol
GGCCACACGTGGGGGG	-0.05 kcal/mol
TAGTGCACGTGATGAA	0.03 kcal/mol
AGCGTCACGTGGGTTT	-0.11 kcal/mol
TTACGCACGTGAGAGG	0.22 kcal/mol
GACGTCACGTGAGTTT	0.44 kcal/mol
AGTGGCACGTGCAGGT	-0.13 kcal/mol
CTAAGCACGTGGGGGA	-0.26 kcal/mol
AAGTTCACGTGTGGGA	0.25 kcal/mol
GTGTTCACGTGCATTG	0.27 kcal/mol
TGTGGCACGTGATTTG	0.06 kcal/mol
TGCGGCACGTGATAGA	0.04 kcal/mol
GGCGTCACGTGCTTGG	0.1 kcal/mol

Sequence	relative binding free energy
TATGACACGTGAAGGG	0.22 kcal/mol
GTGGTCACGTGCTCGT	0.08 kcal/mol
ACAGTCACGTGTATGG	0.03 kcal/mol
AGGGGCACGTGGATAA	-0.08 kcal/mol
TAGGCCACGTGGCAGT	-0.07 kcal/mol
TTTGACACGTGCGGAT	-0.04 kcal/mol
TATGACACGTGATAAG	0.29 kcal/mol
CTATTCACGTGCGTGG	0.24 kcal/mol
TCGAGCACGTGTATTG	-0.04 kcal/mol
AAGTGCACGTGAGTAT	0.23 kcal/mol
CTCTGCACGTGGGAGT	0 kcal/mol
CGGTGCACGTGGGGTA	-0.3 kcal/mol
ATGGCCACGTGATGGG	0.07 kcal/mol
ATGTGCACGTGGAGTA	-0.09 kcal/mol
GGGTCCACGTGTTTGA	0.03 kcal/mol
TATGGCACGTGGTACA	-0.16 kcal/mol
GGGTGCACGTGCGTCG	-0.2 kcal/mol
ACTGGCACGTGGTGTA	-0.24 kcal/mol
GTTCGCACGTGAGTTA	0.16 kcal/mol
TTGCTCACGTGAGAGG	0.38 kcal/mol
AGAATCACGTGAAGGG	0.41 kcal/mol
CTTTTCACGTGACTGG	0.33 kcal/mol
CTCGTCACGTGGTTTT	0.23 kcal/mol
CATGGCACGTGGGTCT	-0.11 kcal/mol
TAGTGCACGTGGAATG	-0.06 kcal/mol
TAATTCACGTGTCTGA	0.31 kcal/mol

Sequence	relative binding free energy
GTGTTCACGTGCGTGG	0.28 kcal/mol
GGGCTCACGTGGTTTA	0.23 kcal/mol
GTTGCCACGTGTGGGC	0.05 kcal/mol
GTGGTCACGTGGCATG	0.13 kcal/mol
TCTTGCACGTGTGGGA	0.03 kcal/mol
TTAACCACGTGGGTGA	-0.11 kcal/mol
GATGGCACGTGTGGGT	-0.02 kcal/mol
AGTTGCACGTGACGTA	0.12 kcal/mol
GTAGTCACGTGGCGCT	0.02 kcal/mol
AATGCCACGTGGGAGT	-0.22 kcal/mol
GTTGTCACGTGAAACG	0.34 kcal/mol
GGCGTCACGTGTTTGT	0.18 kcal/mol
TGATTCACGTGTGAGG	0.28 kcal/mol
AGGTACACGTGTTGGT	0.05 kcal/mol
TGTGGCACGTGCAGTA	-0.15 kcal/mol
AGTTGCACGTGTGTAA	-0.02 kcal/mol
TCTGTCACGTGTATGT	-0.04 kcal/mol
AATGTCACGTGAGGTG	0.4 kcal/mol
GTTTGCACGTGCGTGA	0 kcal/mol
ACTTGCACGTGGTGGC	-0.11 kcal/mol
ATGTGCACGTGGGATG	-0.17 kcal/mol
AGAGGCACGTGTGGCA	0 kcal/mol
TTGTTCACGTGACAGG	0.33 kcal/mol
GAAAGCACGTGTGGGT	0.07 kcal/mol
TTAGGCACGTGATAAA	0.13 kcal/mol
TGAGTCACGTGGTACA	0.05 kcal/mol

Sequence	relative binding free energy
TGTGACACGTGATTGT	0.24 kcal/mol
GTTAACACGTGGGGTG	-0.06 kcal/mol
AATGCCACGTGTGGGG	-0.07 kcal/mol
TTCTGCACGTGACGGT	0.12 kcal/mol
TGAGTCACGTGGTTTC	0.32 kcal/mol
GGGAACACGTGTTGTG	0.01 kcal/mol
TTTTGCACGTGGCGAG	-0.05 kcal/mol
GATTGCACGTGCGCTT	0.15 kcal/mol
AAGGGCACGTGCTGGA	-0.25 kcal/mol
CATGACACGTGGATGG	-0.01 kcal/mol
AGTATCACGTGGTTTT	0.08 kcal/mol
CAAAACACGTGGGGTT	0.04 kcal/mol
TTCGGCACGTGGTGCA	-0.21 kcal/mol
GTGTTCACGTGGTCTG	0.18 kcal/mol
TAGGTCACGTGGCGTC	-0.01 kcal/mol
TTAAGCACGTGACGGG	-0.17 kcal/mol
TGGTTCACGTGGCCAG	0.18 kcal/mol
TAGAGCACGTGCGGTA	-0.14 kcal/mol
ATGTGCACGTGGTCAT	-0.05 kcal/mol
ATAGTCACGTGTGTTA	0.11 kcal/mol
GCTTTCACGTGATTGT	0.3 kcal/mol
CGATGCACGTGCGGGT	-0.18 kcal/mol
TTTGCCACGTGGATAA	0.02 kcal/mol
TATCGCACGTGGGGCG	-0.12 kcal/mol
TGCGTCACGTGGGGCG	-0.02 kcal/mol
ATGTGCACGTGATTAG	0.08 kcal/mol

Sequence	relative binding free energy
GGGACCACGTGGGTTG	-0.14 kcal/mol
TATGTCACGTGAGTTT	0.27 kcal/mol
GAGGGCACGTGGATGA	0 kcal/mol
CGACTCACGTGTTGTT	0.37 kcal/mol
GTCTACACGTGGCGGG	-0.04 kcal/mol
AATTGCACGTGTAATT	0.04 kcal/mol
TTTAACACGTGGTGGG	-0.04 kcal/mol
TTTGGCACGTGGTTTT	-0.12 kcal/mol
TAGAGCACGTGATATT	0.07 kcal/mol
GGTGACACGTGTGCGA	0.04 kcal/mol
TCGTTCACGTGATCGT	0.48 kcal/mol
ATTTTCACGTGGTTTA	0.18 kcal/mol
AAATTCACGTGGTCGG	0.19 kcal/mol
ATAATCACGTGGCTGT	0.02 kcal/mol
TAGGTCACGTGAGTCA	0.27 kcal/mol
GGCAGCACGTGGGGAT	-0.16 kcal/mol
AAGTACACGTGGTGGA	0.07 kcal/mol
AGGTACACGTGAAGAG	0.18 kcal/mol
TGGGACACGTGCATTT	0.07 kcal/mol
GAATGCACGTGGGGAG	-0.05 kcal/mol
GGTAGCACGTGATTTG	0.13 kcal/mol
TGATTCACGTGGGGCT	0.23 kcal/mol
TGTAGCACGTGTAAGT	-0.07 kcal/mol
GTGGCCACGTGGCGGG	-0.12 kcal/mol
AAGATCACGTGGGAGT	0.02 kcal/mol
ATATGCACGTGTGGTC	-0.05 kcal/mol

Sequence	relative binding free energy
GGACTCACGTGGAGTT	0.26 kcal/mol
GGTTTCACGTGGTGCC	0.22 kcal/mol
GGTCGCACGTGTTATG	-0.14 kcal/mol
TGAGACACGTGAGGAG	0.21 kcal/mol
AGGATCACGTGGGGGC	0.12 kcal/mol
GGACTCACGTGCGTGG	0.05 kcal/mol
GGTTACACGTGGGGCT	0.2 kcal/mol
TTTTGCACGTGCGGCT	0 kcal/mol
GGTGTCACGTGTCGGC	0.2 kcal/mol
GAGCTCACGTGTAGGT	0.32 kcal/mol
TTTACCACGTGTTGAT	-0.06 kcal/mol
TGGGGCACGTGTACAA	-0.01 kcal/mol
GGTGGCACGTGCCAGG	0.03 kcal/mol
ATTTGCACGTGGAACG	0.07 kcal/mol
TGGTACACGTGAATTG	0.13 kcal/mol
AGTAACACGTGGTAAT	-0.08 kcal/mol
ATGGGCACGTGTATCG	-0.23 kcal/mol
TCTTTCACGTGCGGGA	0.15 kcal/mol
TTCTACACGTGCAGGG	0.2 kcal/mol
AGTGCCACGTGTTGGA	-0.04 kcal/mol
CTAAGCACGTGGGGGT	-0.25 kcal/mol
GTGTTCACGTGCATGC	0.27 kcal/mol
